From patent US11999716B2, “WDR5 inhibitors and modulators” (priority 2018, dated 2024)
Read-outs that look alike come from different tables or passages of the source.

Molecular target: WDR5 (Homo sapiens, UniProt P61964)
Assay: biochemical
Type: binding
Conditions: WDR5-His tag (Δ23, residues 24-334) 2 nM, 10mer-Thr-FAM probe 150 nM, Tb-anti-HIS 1 nM, 60 min, room temperature
[1] = read-out: Ki for Inhibition of WDR5 by TR-FRET assay
[2] = Ki for Inhibition of WDR5 by TR-FRET assay

SMILES | Ki [1] | Ki [2]
Cc1ccnc([C@H](C2CC2)N2CCc3c(cc(Cn4cnn(C)c4=N)cc3-c3ccc(F)cc3C)C2=O)c1 [Example 126, (S)-2-(Cyclopropyl(4-methylpyridin-2-yl)methyl)-5-(4-fluoro-2-methylphenyl)-7-((5-imino-1-methyl-1,5-dihydro-4H-1,2,4-triazol-4-yl)methyl)-3,4-dihydroisoquinolin-1(2H)-one] | < 0.05 nM | 
COc1cc(CN2CCc3c(cc(Cn4cnn(C)c4=N)cc3-c3ccc(C)nc3C)C2=O)cc(OC)c1 [Example 127, 2-(3,5-Dimethoxybenzyl)-5-(2,6-dimethylpyridin-3-yl)-7-((5-imino-1-methyl-1,5-dihydro-4H-1,2,4-triazol-4-yl)methyl)-3,4-dihydroisoquinolin-1(2H)-one] | 0.098 nM | 
CCn1cc(-c2cc(Cn3cnn(C)c3=N)cc3c2CCN(Cc2cc(C)nn2C)C3=O)c(C(F)(F)F)n1 [Example 128, 2-((1,3-Dimethyl-1H-pyrazol-5-yl)methyl)-7-((5-imino-1-methyl-1,5-dihydro-4H-1,2,4-triazol-4-yl)methyl)-5-(1-ethyl-3-(trifluoromethyl)-1H-pyrazol-4-yl)-3,4-dihydroisoquinolin-1(2H)-one] | < 0.05 nM | 
CCc1ccnc(CN2CCc3c(cc(Cn4cnn(C)c4=N)cc3-c3cn(CC)nc3C(F)(F)F)C2=O)c1 [Example 129, 5-(1-Ethyl-3-(trifluoromethyl)-1H-pyrazol-4-yl)-2-((4-ethylpyridin-2-yl)methyl)-7-((5-imino-1-methyl-1,5-dihydro-4H-1,2,4-triazol-4-yl)methyl)-3,4-dihydroisoquinolin-1(2H)-one] | < 0.05 nM | 
COc1ccnc(CN2CCc3c(cc(Cn4cnsc4=N)cc3-c3cn(C)nc3C(F)(F)F)C2=O)c1 [Example 130, 7-((5-Imino-1,2,4-thiadiazol-4(5H)-yl)methyl)-2-((4-methoxypyridin-2-yl)methyl)-5-(1-methyl-3-(trifluoromethyl)-1H-pyrazol-4-yl)-3,4-dihydroisoquinolin-1(2H)-one] | 0.33 nM | 
COc1ccnc(CN2CCc3c(cc(Cc4cncn4C)cc3-c3cn(C)nc3C(F)(F)F)C2=O)c1 [Example 131, 2-((4-Methoxypyridin-2-yl)methyl)-7-((1-methyl-1H-imidazol-5-yl)methyl)-5-(1-methyl-3-(trifluoromethyl)-1H-pyrazol-4-yl)-3,4-dihydroisoquinolin-1(2H)-one] |  | 0.3 nM
COc1ccnc(CN2CCc3c(cc(Cc4ncc[nH]4)cc3-c3cn(C)nc3C(F)(F)F)C2=O)c1 [Example 132, 7-((1H-Imidazol-2-yl)methyl)-2-((4-methoxypyridin-2-yl)methyl)-5-(1-methyl-3-(trifluoromethyl)-1H-pyrazol-4-yl)-3,4-dihydroisoquinolin-1(2H)-one] |  | < 0.05 nM
COc1cc(CN2CCc3cc(F)c(CNC4=NCCN4)cc3C2=O)cc(OC)c1 [Example 133, 7-(((4,5-Dihydro-1H-imidazol-2-yl)amino)methyl)-2-(3,5-dimethoxybenzyl)-6-fluoro-3,4-dihydroisoquinolin-1(2H)-one] | 7.4 nM | 
COc1ccnc(CN2CCc3c(cc(CNC4=NCCO4)cc3-c3cn(C)nc3C)C2=O)c1 [Example 134, 7-(((4,5-Dihydrooxazol-2-yl)amino)methyl)-5-(1,3-dimethyl-1H-pyrazol-4-yl)-2-((4-methoxypyridin-2-yl)methyl)-3,4-dihydroisoquinolin-1(2H)-one] | 0.94 nM | 
COc1ccnc(CN2CCc3c(cc(CNc4nnc5ccccn45)cc3-c3cn(C)nc3C(F)(F)F)C2=O)c1 [Example 135, 7-(([1,2,4]Triazolo[4,3-a]pyridin-3-ylamino)methyl)-2-((4-methoxypyridin-2-yl)methyl)-5-(1-methyl-3-(trifluoromethyl)-1H-pyrazol-4-yl)-3,4-dihydroisoquinolin-1(2H)-one] | 20 nM | 
COc1ccnc(CN2Cc3c(cc(Cn4ccn(C)c4=N)cc3C3CC3)C2=O)c1 [Example 136, 4-Cyclopropyl-6-((2-imino-3-methyl-2,3-dihydro-1H-imidazol-1-yl)methyl)-2-((4-methoxypyridin-2-yl)methyl)isoindolin-1-one] | 12 nM | 
CCn1cc(-c2cc(Cn3ccn(C)c3=N)cc3c2CN(Cc2cc(OC)ccn2)C3=O)c(C(F)(F)F)n1 [Example 137, 4-(1-Ethyl-3-(trifluoromethyl)-1H-pyrazol-4-yl)-6-((2-imino-3-methyl-2,3-dihydro-1H-imidazol-1-yl)methyl)-2-((4-methoxypyridin-2-yl)methyl)isoindolin-1-one] | 0.11 nM | 
COc1ccnc(CN2Cc3c(cc(Cn4ccn(C)c4=N)cc3-c3ccc(F)cc3C)C2=O)c1 [Example 138, 4-(4-Fluoro-2-methylphenyl)-6-((2-imino-3-methyl-2,3-dihydro-1H-imidazol-1-yl)methyl)-2-((4-methoxypyridin-2-yl)methyl)isoindolin-1-one] | 0.62 nM | 
COc1ccnc(CN2Cc3c(cc(Cn4ccn(C)c4=N)cc3-c3cccnc3C)C2=O)c1 [Example 139, 6-((2-Imino-3-methyl-2,3-dihydro-1H-imidazol-1-yl)methyl)-2-((4-methoxypyridin-2-yl)methyl)-4-(2-methylpyridin-3-yl)isoindolin-1-one] | 2.3 nM | 
COc1cc(CN2CCCc3c(cc(Cn4ccn(C)c4=N)cc3-c3ccc(F)cc3C)C2=O)cc(OC)c1 [Example 140, 2-(3,5-Dimethoxybenzyl)-6-(4-fluoro-2-methylphenyl)-8-((2-imino-3-methyl-2,3-dihydro-1H-imidazol-1-yl)methyl)-2,3,4,5-tetrahydro-1H-benzo[c]azepin-1-one] | 0.054 nM | 
COc1cc(CN2CCCc3c(cc(Cn4ccnc4C)cc3-c3ccc(F)cc3C)C2=O)cc(OC)c1 [Example 141, 2-(3,5-dimethoxybenzyl)-6-(4-fluoro-2-methylphenyl)-8-((2-methyl-1H-imidazol-1-yl)methyl)-2,3,4,5-tetrahydro-1H-benzo[c]azepin-1-one] | 0.17 nM | 
Cc1cc([C@H](C)N2CCc3c(cc(CNc4cccc(=O)[nH]4)cc3-c3cn(C)nc3C(F)(F)F)C2=O)ccc1F [Example 142, (S)-2-(1-(4-Fluoro-3-methylphenyl)ethyl)-5-(1-methyl-3-(trifluoromethyl)-1H-pyrazol-4-yl)-7-(((6-oxo-1,6-dihydropyridin-2-yl)amino)methyl)-3,4-dihydroisoquinolin-1(2H)-one] | 25 nM | 
Cc1cc([C@H](C)N2CCc3c(cc(Cn4ccn(C)c4=N)cc3-c3cn(C)nc3C)C2=O)ccc1F [Example 143, (S)-5-(1,3-Dimethyl-1H-pyrazol-4-yl)-2-(1-(4-fluoro-3-methylphenyl)ethyl)-7-((2-imino-3-methyl-2,3-dihydro-1H-imidazol-1-yl)methyl)-3,4-dihydroisoquinolin-1(2H)-one] | < 0.05 nM | 
COc1cc(CN2CCc3c(cc(Cn4cnnc4C)cc3-c3ccc(F)cc3C)C2=O)cc(OC)c1 [Example 145, 2-(3,5-Dimethoxybenzyl)-5-(4-fluoro-2-methylphenyl)-7-((3-methyl-4H-1,2,4-triazol-4-yl)methyl)-3,4-dihydroisoquinolin-1(2H)-one] | 7.9 nM | 
Cc1cc([C@H](C)N2CCc3c(cc(Cn4ccnc4C)cc3-c3cn(C)nc3C)C2=O)ccc1F [Example 146, (S)-5-(1,3-Dimethyl-1H-pyrazol-4-yl)-2-(1-(4-fluoro-3-methylphenyl)ethyl)-7-((2-methyl-1H-imidazol-1-yl)methyl)-3,4-dihydroisoquinolin-1(2H)-one] | < 0.05 nM | 
Cn1cc(-c2cc(Cn3ccn(C)c3=N)cc3c2CCN(Cc2cc(C4CC4)nn2C)C3=O)c(C(F)(F)F)n1 [Example 147, 2-((3-Cyclopropyl-1-methyl-1H-pyrazol-5-yl)methyl)-7-((2-imino-3-methyl-2,3-dihydro-1H-imidazol-1-yl)methyl)-5-(1-methyl-3-(trifluoromethyl)-1H-pyrazol-4-yl)-3,4-dihydroisoquinolin-1(2H)-one] | < 0.05 nM | 
Cc1nccn1Cc1cc2c(c(-c3cn(C)nc3C(F)(F)F)c1)CCN(Cc1cc(C3CC3)nn1C)C2=O [Example 148, 2-((3-Cyclopropyl-1-methyl-1H-pyrazol-5-yl)methyl)-7-((2-methyl-1H-imidazol-1-yl)methyl)-5-(1-methyl-3-(trifluoromethyl)-1H-pyrazol-4-yl)-3,4-dihydroisoquinolin-1(2H)-one] | < 0.05 nM | 
CCc1ccnc(CN2CCc3c(cc(Cn4ccnc4CC)cc3-c3cn(CC)nc3C(F)(F)F)C2=O)c1 [Example 149, 7-((2-Ethyl-1H-imidazol-1-yl)methyl)-5-(1-ethyl-3-(trifluoromethyl)-1H-pyrazol-4-yl)-2-((4-ethylpyridin-2-yl)methyl)-3,4-dihydroisoquinolin-1(2H)-one] | < 0.05 nM | 
Cn1cc(-c2cc(Cn3ccoc3=N)cc3c2CCN(Cc2cc(C4CC4)nn2C)C3=O)c(C(F)(F)F)n1 [Example 150, 2-((3-Cyclopropyl-1-methyl-1H-pyrazol-5-yl)methyl)-7-((2-iminooxazol-3(2H)-yl)methyl)-5-(1-methyl-3-(trifluoromethyl)-1H-pyrazol-4-yl)-3,4-dihydroisoquinolin-1(2H)-one] | < 0.05 nM | 
CCn1cc(-c2cc(CN3CCSC3=N)cc3c2CCN([C@@H](C)c2cc(OC)ccn2)C3=O)c(C(F)(F)F)n1 [Example 151, (S)-5-(1-Ethyl-3-(trifluoromethyl)-1H-pyrazol-4-yl)-7-((2-iminothiazolidin-3-yl)methyl)-2-(1-(4-methoxypyridin-2-yl)ethyl)-3,4-dihydroisoquinolin-1(2H)-one] | < 0.05 nM | 
CCn1cc(-c2cc(Cn3cnn(C)c3=N)cc3c2CCN([C@@H](C)c2cc(OC)ccn2)C3=O)c(C(F)(F)F)n1 [Example 152, (S)-5-(1-ethyl-3-(trifluoromethyl)-1H-pyrazol-4-yl)-7-((5-imino-1-methyl-1,5-dihydro-4H-1,2,4-triazol-4-yl)methyl)-2-(1-(4-methoxypyridin-2-yl)ethyl)-3,4-dihydroisoquinolin-1(2H)-one] | < 0.05 nM | 
